According to PMC4336329 (PLoS ONE, 2015):
Out of some 310,000 compounds screened, about 14,000 (4.5%) showed an effect of 50% or more. The effect is printed as a negative number. Some of the results follow.

What follows are molecules tested against human ether-à-go-go-related gene (hERG) potassium channel (human, UniProt Q12809) (assay: primary screen, population patch clamp on CHO cells stably expressing hERG).
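Note: peak tail current of the secondary pulse compared with the same well before compound.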

human ether-à-go-go-related gene (hERG) potassium channel, sequence (Q12809 whole entry, looked up): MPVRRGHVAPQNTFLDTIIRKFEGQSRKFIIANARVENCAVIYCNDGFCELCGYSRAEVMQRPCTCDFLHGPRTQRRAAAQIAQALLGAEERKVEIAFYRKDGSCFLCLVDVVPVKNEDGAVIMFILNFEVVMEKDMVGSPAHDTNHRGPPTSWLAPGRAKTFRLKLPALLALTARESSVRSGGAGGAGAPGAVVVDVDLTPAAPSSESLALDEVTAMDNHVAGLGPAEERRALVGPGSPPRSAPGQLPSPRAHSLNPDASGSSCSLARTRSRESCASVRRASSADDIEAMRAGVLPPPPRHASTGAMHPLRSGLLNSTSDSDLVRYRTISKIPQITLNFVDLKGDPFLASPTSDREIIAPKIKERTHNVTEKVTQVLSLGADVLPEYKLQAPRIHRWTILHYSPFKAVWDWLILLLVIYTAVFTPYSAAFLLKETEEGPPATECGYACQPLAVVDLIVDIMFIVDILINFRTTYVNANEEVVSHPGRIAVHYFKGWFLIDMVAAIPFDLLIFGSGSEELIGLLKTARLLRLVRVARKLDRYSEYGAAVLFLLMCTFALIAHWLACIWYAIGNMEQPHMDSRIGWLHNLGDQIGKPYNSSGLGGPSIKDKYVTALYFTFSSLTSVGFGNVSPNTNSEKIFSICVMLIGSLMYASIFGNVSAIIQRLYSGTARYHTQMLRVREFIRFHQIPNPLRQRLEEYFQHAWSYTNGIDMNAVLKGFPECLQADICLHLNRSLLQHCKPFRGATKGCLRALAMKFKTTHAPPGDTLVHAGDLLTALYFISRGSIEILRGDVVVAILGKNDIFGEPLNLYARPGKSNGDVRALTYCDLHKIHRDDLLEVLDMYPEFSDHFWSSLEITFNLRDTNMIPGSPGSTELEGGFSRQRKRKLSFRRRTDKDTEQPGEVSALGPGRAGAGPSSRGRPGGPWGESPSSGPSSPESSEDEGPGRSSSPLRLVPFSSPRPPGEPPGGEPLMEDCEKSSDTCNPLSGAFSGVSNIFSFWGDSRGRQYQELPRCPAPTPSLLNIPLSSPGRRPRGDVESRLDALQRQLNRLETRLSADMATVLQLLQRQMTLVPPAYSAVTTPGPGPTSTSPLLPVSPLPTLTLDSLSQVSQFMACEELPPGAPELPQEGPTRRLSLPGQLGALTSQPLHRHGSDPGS

SMILES	hERG current change (%, negative = inhibition) at 10uM
O=C1NC(=O)C(=Cc2ccc3c(c2)OCO3)C(=O)N1	15.3%
C/C(=N\NC(=O)c1ccncc1)c1ccc(N2CCOCC2)cc1	-4.49%
CCC[N+](CC#CCO)(CC#Cc1ccccc1)CCC.[Br-]	-7.98%
O=C(NCC1CCOCC1)c1cc(COc2ccc(F)cc2F)on1	-11.9%
O=C(NCc1ccccc1)N1CCC(n2cnc3cc(F)ccc32)CC1	-64.3%
Cc1noc(C)c1S(=O)(=O)N1CCN(c2ccccc2)CC1	-5.33%
O=C(COC(=O)c1ccccc1F)Nc1cc(S(=O)(=O)N2CCOCC2)ccc1N1CCCC1	-13.5%
O=C(Nc1ccccc1)C1CCCN1S(=O)(=O)c1ccc(Br)cc1 (centres unmarked)	22.8%
N#C/C(C(=O)NCc1ccccc1)=C1/N=C(NC(=O)c2ccco2)c2ccccc21	10.3%
CS(=O)(=O)N1CCC(C(=O)NCc2ccc(F)cc2Cl)CC1	-3.78%
O=C(CSc1ccc(-c2ccc(F)cc2)nn1)NCC1CCCO1 (centres unmarked)	-8.07%
COc1cc(C(=O)Nc2ccc3c(c2)C(=O)c2ccccc2C3=O)cc(OC)c1OC	-4.84%
COc1ccc(C2NC(=O)NC(C)=C2C(=O)OC2CCC(C)CC2)cc1 (centres unmarked)	11.9%
O=C(c1ccco1)N1N=C2CCCCCC2C1(O)C(F)(F)F (centres unmarked)	5.03%
Cc1ccc(Nc2nnc(SCC(=O)Nc3cccc(S(=O)(=O)NC4=NCCCCC4)c3)s2)c(C)c1	-8.71%
O=C(N/N=C/c1cc2ccccc2nc1Cl)c1ccncc1	1.94%
CCOc1ccc2[nH]c3c(N4CCN(C(=O)c5ccco5)CC4)ncnc3c2c1	-58.4%
CC1Cc2cc(C(=O)O)ccc2O1 (centres unmarked)	-8.49%
CCOc1cccc(C(=O)NC(=S)Nc2cccc(C)c2)c1	6.87%
COc1ccc(C(=O)Nc2cc3c(cc2N2CCOCC2)n(C)c(=O)n3C)cc1OC	19.1%
Cc1ccc(/C=N/Nc2cc(C)nc(NCc3ccccc3)n2)cc1	-6.03%
N/C(=N\OC(=O)C1CCCCC1)c1cccc([N+](=O)[O-])c1	19.1%
CCOC(=O)CSc1nc(C)c(Oc2ccc(Cl)cc2Cl)c(=O)[nH]1	9.96%

SMILES	hERG current change (%, negative = inhibition) at 10uM
CC(=O)c1ccc(OCCCC(=O)Nc2ccc(C)c(S(=O)(=O)N(C)C)c2)cc1	-6.59%
CNc1ccc(C(=O)OCC(=O)Nc2ccnn2C(C)C)cc1[N+](=O)[O-]	-1.37%
CC(C)(C)C(=O)N(Cc1ccccc1)c1ccccn1	6.01%
Cn1c(=O)cc(OCCCC(=O)N2CCN(c3ccccc3)CC2)c2ccccc21	-47.3%
Cc1ccc(NC(=S)N(CCCN2CCOCC2)Cc2cccs2)c(C)c1	-11.7%
COC(=O)c1ccc(NC(=O)CSc2nc3ncccc3[nH]2)cc1	2.16%
Cc1ccc(NC(=O)CSc2nnc(Cn3c(=O)sc4ccccc43)n2C)cc1Cl	-2.61%
COc1ccccc1NC(=O)N1CCn2c(nc3ccccc32)C1	-17.4%
COC(=O)C1=C(c2ccc(F)cc2F)C[C@@H]2CC[C@H]1N2C(=O)N1CCCC1	12.5%
N#C/C(=C\c1ccc(O)c(O)c1)C(=O)N1CCCC1	19.7%
CC(=O)c1ccc(NC(=O)C2CCCN2S(=O)(=O)c2cccs2)cc1 (centres unmarked)	-1.36%
O=C(NCc1cccs1)c1noc2c1CCCCC2	-5.56%
CC1CC(C)CN(S(=O)(=O)c2cc3c4c(c2)C(C)C(=O)N4CCC3)C1 (centres unmarked)	9.93%
O=C(N/N=C/c1c(O)ccc2ccccc12)Nc1ccccc1	16.3%
C[C@]12CCC[C@H](O1)[C@H]([C@@H](O)c1ccccc1)O2	19.3%
N#Cc1cnc(NCc2ccc(Cl)cc2Cl)nc1	2.88%
COc1ccccc1N(CC(=O)NCCc1ccccc1)S(C)(=O)=O	21.2%
COc1ccccc1N1CCN(C(=O)CN(C)S(=O)(=O)c2cc(C)ccc2OC)CC1	-7.23%
O=C1N(Cc2ccc(F)cc2Cl)c2ccccc2C12OCCCO2	-5.22%
c1ccc(N2CCN(c3nnnn3-c3ccccc3)CC2)cc1	-11.2%
Cc1nc(NCc2ccc3c(c2)OCO3)c2nnn(Cc3ccccc3)c2n1	-13.9%
CCOC(=O)c1cc(NC(=O)OC)c(C)nc1C	1.06%
CC1CCN(S(=O)(=O)c2cccc(C(=O)Nc3ccccc3)c2)CC1	-9.3%

SMILES	hERG current change (%, negative = inhibition) at 10uM
NC(=O)C1CCN(c2ccc([N+](=O)[O-])cc2Cl)CC1	14.8%
COc1ccc(C2=NN3C(C2)c2ccccc2OC32C(=O)N(C)c3ccccc32)cc1 (centres unmarked)	-1.88%
CNC(=S)NNC(=O)c1ccc2c(c1)OCO2	10.1%
O=C(Nc1ccc(N2C(=O)C3C4C=CC(C4)C3C2=O)cc1Cl)c1cccs1 (centres unmarked)	11.5%
CCOCCCNCC(=O)Nc1ccccc1N1CCOCC1.O=C(O)C(=O)O	-3.71%
O=C(Nc1ccc(-c2n[nH]c(=S)o2)cc1)c1ccccc1Br	20.6%
Cn1nccc1C(=O)N1CCCC(N2CCN(Cc3ccc4c(c3)OCO4)CC2)C1 (centres unmarked)	15.7%
COc1ccc(CCN2CC(C(=O)NCCN3CCNC3=O)CCC2=O)cc1 (centres unmarked)	6.77%
c1ccc(N2CCN(Cc3nnnn3C3CCCCC3)CC2)cc1	15.9%
CC(C)(C)OC(=O)N1CC(O)CC1C(=O)OCC(=O)c1ccccc1 (centres unmarked)	5.86%
COc1ccc(CCN2C(=O)CC(NCCc3ccc(S(N)(=O)=O)cc3)C2=O)cc1OC (centres unmarked)	13.7%
Cc1ccc(S(=O)(=O)N2[C@@H](c3ccc(Cl)cc3)C(C(=O)O)=CC[C@H]2c2cccc(C)c2)cc1	2.46%
O=C(Cc1ccc(-n2cccc2)cc1)NCc1cccs1	1.83%
O=C(NCCCn1ccnc1)/C(=C\c1cccs1)NC(=O)c1ccccc1	-69%
CC(=O)Oc1ccccc1C1OC(=O)c2ccccc2N1C(C)=O (centres unmarked)	0.0531%
C/C(=N\NC(=S)NC1CCCCC1)c1ccc(O)cc1	-29.4%
Cc1ccc(N2C(=O)CC(Nc3cccc4ccccc34)C2=O)cc1 (centres unmarked)	27.6%
CCC1CSC(Nc2ccc(C(=O)/C=C/c3ccc(Br)cc3)cc2)=N1 (centres unmarked)	0.372%
CCN(CC)C(=O)Cn1nnc(-c2ccc(S(C)(=O)=O)cc2)n1	13.6%
Cc1ccc2nc(-c3ccncc3)c(NC3CCCC3)n2c1	-54.2%
Nc1cc(C(F)(F)F)ccc1OCC1CCCO1 (centres unmarked)	6.54%
CC(C)(C)c1ccc(S(=O)(=O)Nc2ccc3c(c2)COC3=O)cc1	17.3%
Cc1nc2scc(C)n2c(=O)c1S(=O)(=O)N1CCN(c2cccc(C(F)(F)F)c2)CC1	-3.03%

SMILES	hERG current change (%, negative = inhibition) at 10uM
CNC(=S)NNC(=O)c1cccn(Cc2cccc(C(F)(F)F)c2)c1=O	22.2%
O=C1NC(=O)N(CCC2=CCCCC2)C(=O)/C1=C/c1cccs1	14.7%
COc1ccccc1N1CCN(CC(=O)NCCc2ccc(S(N)(=O)=O)cc2)CC1	15.8%
O=C(N/N=C/c1ccc(N2CCCCC2)o1)c1ccccc1[N+](=O)[O-]	11.6%
Cc1ccc(C(=O)Oc2ccccc2C(=O)N2CCOCC2)cc1	6.81%
O=C(c1ccc(CS(=O)c2ccccc2Cl)o1)N1CCOCC1 (centres unmarked)	1.49%
CCN(CC)CCN1C(=O)c2ccccc2NC1c1ccc(F)cc1 (centres unmarked)	-64.3%
COC(=O)c1c(C)c2c(C)cc3ccccn3c-2c1C(=O)OC	-4.02%
O=[N+]([O-])c1ccccc1S(=O)(=O)N1CCSCC1	-12.5%
CC1CCN(C(=O)CSCC(=O)O)CC1	3.55%
Cc1csc(SCC(=O)Nc2sccc2C(N)=O)n1	14.2%
CN(Cc1ccc(F)cc1)C(=O)c1cccc(S(=O)(=O)NCc2ccccc2)c1	-44.1%
CCOC(=O)C1(C)C=C(Nc2ccc(OC)cc2)C(=O)N1c1ccc(OC)cc1 (centres unmarked)	25.9%
O=C(NCCNS(=O)(=O)c1ccccc1)N1CCOCC1	18.3%
Cc1cc2cc(CCNC(=O)c3ccc(C)c([N+](=O)[O-])c3)c(=O)[nH]c2cc1C	4.59%
Cc1cc(C)nc(Nc2n[nH]c(-c3ccccc3Cl)n2)n1	4.1%
Nc1ccc(C2(c3ccc(N)cc3)CN3CCC2CC3)cc1	5.9%
COC(=O)C1CCN(C(=O)c2cc(-c3ccc(Cl)s3)nc3ccccc23)CC1	-32.8%
COc1ccc(-n2ncc3c(NCc4ccco4)ncnc32)cc1	-17.8%
Cl.O=C(Nc1nc2n(n1)C(c1ccccc1)C=C(c1ccccc1)N2)c1ccco1 (centres unmarked)	-16.2%
